# From PubChem BioAssay AID588795 (National Center for Advancing Translational Sciences (NCATS), 2011)
# Values joined by “and” are separate entries in the source; they are usually repeats but may differ in a detail not shown here. Equal values may be shown once. The campaign covered roughly 390,000 compounds. About 1,400 (0.36%) were called active. The inconclusive results got no clear call from the source; some entries with a clear call stand among them for comparison. Calls follow the shape of the dose curve; as a rule, active = well fitted inhibition curve with a large enough effect; inconclusive = small, poorly fitted or top-dose-only effect; inactive = no such curve, though single readings can be large or run the other way. Where the call is inconclusive, the potency comes from a doubtful curve fit.
# Biological target: Flap endonuclease 1 (Homo sapiens) (UniProt P39748)
# Test: qHTS Assay for the Inhibitors of Human Flap endonuclease 1 (FEN1). Also: nearly all actives have a fitted effect of over 65% in size.
# Conditions: Recombinant FEN1 flap cleavage, fluorescence, 15 min; series mostly up to 114 µM
# Outline: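 Recombinant FEN1 (10 nM) was preincubated with pin-transferred compounds for 15 min at room temperature, then flap DNA substrate (50 nM final) was added. Plates were read at 0 and 15 min, and normalized concentration–response data were fitted to a four-parameter Hill equation.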
# Potency is read from the fitted curve at half-maximal effect; tags tell the direction and shape of the fitted curve.
# UniProt P39748, sequence (P39748 whole entry, looked up): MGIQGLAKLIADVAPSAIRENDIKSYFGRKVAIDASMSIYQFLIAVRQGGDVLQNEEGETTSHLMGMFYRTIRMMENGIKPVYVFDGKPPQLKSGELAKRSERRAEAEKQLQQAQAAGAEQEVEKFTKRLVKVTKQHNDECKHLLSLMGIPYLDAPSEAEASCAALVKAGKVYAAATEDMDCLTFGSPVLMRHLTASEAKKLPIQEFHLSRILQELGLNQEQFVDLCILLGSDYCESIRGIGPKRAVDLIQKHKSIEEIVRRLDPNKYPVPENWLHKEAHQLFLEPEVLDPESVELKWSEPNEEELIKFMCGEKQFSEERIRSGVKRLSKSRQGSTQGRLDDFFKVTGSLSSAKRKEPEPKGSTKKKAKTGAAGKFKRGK
row,Structure (SMILES),Potency
1,COc1ccccc1N1CCN(C(=O)c2nc(-c3ccc(C)cc3)n3c2CCCCC3)CC1,"inconclusive: 50.1 µM [inhibitor, partial curve]"
2,Cc1c(C(=O)O)sc2nc(-c3cccs3)cc(C(F)(F)F)c12,"inconclusive: 89.1 µM [inhibitor, single point]"
3,CCOC(=O)c1c(-c2ccc(F)cc2)csc1NC(=O)CN1C(=O)NC2(CCCCC2C)C1=O (stereo not drawn),"inconclusive: 100 µM [inhibitor, partial curve, poor fit]"
4,COCCN1C(=O)/C(=C/c2ccc(N3CCCC3)cc2)SC1=S,"inconclusive: 5.62 µM [inhibitor, partial curve, poor fit]"
5,NC(=O)C1CCN(c2nc(-c3cccnc3)cs2)CC1,"inconclusive: 89.1 µM [inhibitor, single point]"
6,COc1cc2c(C#CCCO)c(-c3ccsc3)oc(=O)c2cc1OC,"inconclusive: 25.1 µM [inhibitor, partial curve, poor fit]"
7,COc1cc(C(=O)N2CCN(c3ccc(Nc4ccccc4)nn3)CC2)cc(OC)c1OC,inactive
8,c1cncc(-c2nc3c(ccc4ccccc43)[nH]2)c1,"inconclusive: 50.1 µM [inhibitor, partial curve]"
9,Oc1ccccc1C1N=C(c2ccccc2)NC(c2ccccc2)=N1,"inconclusive: 79.4 µM [inhibitor, partial curve, poor fit]"
10,CC1CCC2(CC1)N=C(c1ccccc1)C(=O)N2CC(=O)Nc1ccc(F)c(Cl)c1 (stereo not drawn),"inconclusive: 89.1 µM [inhibitor, partial curve, poor fit]"
11,CC1=Nc2cccc3cccc(c23)N1,"inconclusive: 20 µM [inhibitor, partial curve, poor fit]"
12,Cc1nc2c(C(=O)NCCc3ccc(Cl)cc3)c[nH]n2c(=O)c1Cc1ccccc1F,"inconclusive: 50.1 µM [inhibitor, partial curve, poor fit]"
13,CC(=O)C1=C(O)C(=O)N(Cc2ccccc2)C1c1cccs1 (stereo not drawn),"inconclusive: 50.1 µM [inhibitor, partial curve]"
14,COc1cc2c(-c3ccc(C)cc3)nc3c(c(C)nn3-c3ccccc3)c2cc1OC,inactive
15,CC(C(=O)NC1CCCC1)N(C(=O)c1ccc(-c2ccccc2)[nH]1)c1ccccc1F (stereo not drawn),"inconclusive: 79.4 µM [inhibitor, partial curve, poor fit]"
16,COc1ccc(-c2cc(=O)oc3cc(OCC(=O)Nc4ccccn4)ccc23)cc1,"inconclusive: 100 µM [inhibitor, partial curve, poor fit]"
17,COc1ccc(CN(CCC(C)C)S(=O)(=O)c2ccccc2Br)c(OC)c1,"inconclusive: 79.4 µM [inhibitor, partial curve, poor fit]"
18,CCCCCCCCCCCCCCCC(O)C[N+](C)(C)CCO (stereo not drawn),"inconclusive: 89.1 µM [inhibitor, single point]"
19,CC(=O)Nc1ccc2nc3c(=O)n(C)c(=O)n(C)c3nc2c1,"inconclusive: 89.1 µM [inhibitor, single point]"

row,Structure (SMILES),Potency
1,O=C(COC(=O)c1ccc([N+](=O)[O-])o1)NCCc1ccccc1,"inconclusive: 31.6 µM [inhibitor, single point]"
2,CC1=NN(c2ccc(Cl)cc2)C(=O)C1C(c1ccccc1O)c1c(C)[nH]n(-c2ccc(Cl)cc2)c1=O (stereo not drawn),"inconclusive: 50.1 µM [inhibitor, partial curve]"
3,CCOc1ccc(/C=C(\C#N)C(=O)Nc2sc3c(c2C(=O)OC)C(C(=O)OC)CC3)cc1OC (stereo not drawn),"inconclusive: 89.1 µM [inhibitor, single point]"
4,CCOC(=O)c1ccc(N2CSC3=C(C#N)C(c4ccc(OC)cc4OC)CC(=O)N3C2)cc1 (stereo not drawn),"inconclusive: 1.58 µM [inhibitor, partial curve, poor fit]"
5,CN(C)c1ccc(C2C=Cc3ccccc32)c2ccccc12 (stereo not drawn),inactive
6,COc1ccc(C)cc1Nc1nc(N)c2cc(OC)c(OC)cc2n1,"inconclusive: 39.8 µM [inhibitor, partial curve] and inconclusive: 50.1 µM [inhibitor, partial curve]"
7,COc1ccc(C2c3cccn3CCN2S(=O)(=O)c2ccc([N+](=O)[O-])cc2)cc1 (stereo not drawn),inactive
8,Clc1cccc(CNc2ncnc3nc[nH]c23)c1,inactive
9,CCN1CCN(c2cc(C)c3cc(NC(=O)c4ccc(OC)c(OC)c4)ccc3n2)CC1,"inconclusive: 15.8 µM [inhibitor, partial curve, poor fit] and inconclusive: 56.2 µM [inhibitor, partial curve, poor fit]"
10,C=C(C)COc1ccc(-c2nc(N)ncc2-c2ccccc2OC)c(O)c1,"inconclusive: 39.8 µM [inhibitor, partial curve, poor fit]"
11,COc1ccc(/C=N/Nc2nc(N3CCCC3)nc(N3CCCC3)n2)cc1,"inconclusive: 89.1 µM [inhibitor, single point]"
12,COc1ccc(C2CC(=O)N(CC(=O)Nc3cccc(C)c3C)c3ccccc3S2)cc1OC (stereo not drawn),inactive
13,Cc1ccc(S(=O)(=O)Nc2ccc(-c3nc4ccc(C)cc4s3)cc2)cc1,"inconclusive: 89.1 µM [inhibitor, single point]"
14,CCN1CCCc2cc(CN(CCN3CCOCC3)C(=S)Nc3ccc(OC)cc3)ccc21,inactive
15,Cc1ccc(Sc2ccc(N3CCCC(C(=O)Nc4ccc(F)cc4F)C3)nn2)cc1 (stereo not drawn),"inconclusive: 100 µM [inhibitor, partial curve, poor fit]"
16,Cc1cc(C(=O)CSc2nc3ccc(Cl)cc3[nH]2)c(C)n1Cc1ccco1,inactive
17,Cc1cc([N+](=O)[O-])c2[nH]c(C(=O)N/N=C/c3ccccc3C(=O)O)c(-c3ccccc3)c2c1,"inconclusive: 44.7 µM [inhibitor, partial curve, poor fit]"
18,O=C(Nc1ccc(Cl)cc1)N1CCC(c2nc(-c3ccccc3Cl)no2)CC1,"inconclusive: 79.4 µM [inhibitor, single point]"
19,Cc1c(Cl)ccc2sc(N3CCN(C(=O)CS(=O)(=O)c4ccccc4)CC3)nc12,inactive
